# From the supplement of paper PMC12217912
# The other results are listed elsewhere or left out. The full chains were built here from the parent and the listed change. Values near 0.05 are background.
# B1: TEV protease; numbered along this chain (parent)
# chain: MGESLFKGPRDYNPISSSICHLTNESDGHTTSLYGIGFGPFIITNKHLFRRNNGTLVVQSLHGVFKVKDTTTLQQHLVDGRDMIIIRMPKDFPPFPQKLKFREPQREERICLVTTNFQTKSMSSMVSDTSCTFPSGDGIFWKHWIQTKDGQCGSPLVSTRDGFIVGIHSASNFTNTNNYFTSVPKNFMELLTNQEAQQWVSGWRLNADSVLWGGHKVFMVKPEEPFQPVKEATQL
# Variants of: B1
# Experiment: raw area under fraction-flipped curve 0-4 h after induction (AUC4h, not background-subtracted), DNA-recorder readout of cleavage of the substrate (dimensionless); higher = more cleavage of the substrate by the protease variant
# Conditions: temperature: 34 °C; time window: 0-4 h after rhamnose induction
# 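Further: Bxb1 expression induced with 0.2% (w/v) L-rhamnose at OD600 near 0.5, cultures sampled hourly, flipped fraction per protease–substrate barcode pair counted by paired-end Illumina sequencing.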
Variant,area with substrate ENLYDQS,area with substrate ENLYEQS,area with substrate ENLYGQS,area with substrate ENLYHQS,area with substrate ENLYIQS,area with substrate ENLYKQS,area with substrate ENLYNQS,area with substrate ENLYPQS,area with substrate ENLYQQS,area with substrate ENLYRQS,area with substrate ENLYSQS,area with substrate ENLYTQS,area with substrate ENLYVQS,area with substrate ENLYWQS,area with substrate ENLYYQS,area with substrate ENLYMQS,area with substrate ENLYLQS
G202V,0.0298,0.0878,0.0596,0.0532,0.0661,0.039,0.054,0.0463,0.0513,0.0456,0.0508,0.0404,0.0648,0.0496,0.0567,–,–
W203R,0.0706,0.0444,0.0709,0.0671,–,–,0.0593,0.0613,–,0.0572,–,–,–,0.083,–,0.064,–
R204N,0.0947,0.0642,0.0643,0.0753,0.115,0.0626,0.0642,–,0.0593,0.065,0.0377,0.0822,0.115,0.0777,–,0.0945,–
L205N,0.0816,0.0589,0.0318,–,0.0518,–,0.0872,–,–,–,–,–,–,0.0551,–,–,–
V210G,0.0561,0.059,–,0.0572,–,–,0.0634,0.0747,–,0.0601,–,0.0593,0.0938,0.057,–,–,–
W212M,0.0739,0.0679,0.0757,0.0759,0.103,–,0.0775,–,–,0.0719,–,–,–,0.122,0.096,0.0939,0.0858
G213K,0.054,0.0536,0.0558,0.061,0.0888,0.0465,0.0595,0.0744,0.0739,0.06,0.0748,0.0547,0.0683,0.0562,0.0657,0.041,–
G213S,0.0804,0.0625,0.0685,–,–,0.0747,0.0601,–,0.0535,0.0663,0.0638,0.0584,–,0.0659,–,0.0629,0.0671
K216L,0.0559,–,–,–,–,0.0589,0.0628,–,–,0.0695,0.103,–,–,–,–,–,–
K221Y,0.0845,0.0631,0.0701,0.0564,–,0.059,0.0582,0.0636,0.0591,–,0.0755,0.0679,0.106,0.0672,–,0.087,0.0652
P225R,0.0682,0.0665,0.0603,0.0755,0.113,0.0376,0.0576,0.073,0.0602,–,0.0768,0.0753,0.0782,0.073,0.0672,0.084,–
Q227E,0.0674,0.0845,0.078,–,0.144,0.0552,0.0701,0.0655,0.0701,–,0.0516,0.0787,–,0.0809,0.0588,0.106,–
Q227P,0.059,0.0506,0.0774,–,–,0.0327,0.0698,0.0715,–,0.0554,–,0.0834,0.125,0.0832,0.0603,0.0849,0.0915
V229L,0.0587,0.0586,0.0763,0.0702,0.119,0.0547,0.0982,–,0.056,0.0614,0.0672,0.102,–,0.0942,0.0746,0.0977,–
